# Experimental data as given in PubChem BioAssay (NCI).
# A structure can be active in one record and inactive in another.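 Cell lines were cultured in 96-well plates, exposed to a single compound concentration, and assessed for percent growth 48 hours later.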 Certain results were filed several times, with different values. They are shown here; other results are not. Rule for the calls: active = growth percent below 10; inactive = the rest. The source may hold further records. These are repeated runs of one drug, at its own concentration, as given; each value is one run. Brackets with × stand for listed records that agree.
# Tests used:
# [1] = system: HOP-62 NSCLC; experiment: NCI-60 one-dose screen, 48 h (100 = growth as untreated, 0 = no growth, -100 = all killed); conditions: 2.5 mM
# [2] = system: NCI-H460 lung; experiment: as above; conditions: 2.5 mM
smiles,measurement,setting,value
O=c1[nH]cc(F)c(=O)[nH]1,growth,[1]; runs of 1991,"inactive: 20.5, 22.5, 13.2, 29.2, 17.7, 24.7% and active: -34.9, 3.68, -31.2, -24.9, -0.327, 3.42, 6.45, -46.3, -14.3, 5.89, -53.8, -2.58, -66.8%"
same,growth,[1]; runs of 1992,"inactive: 20.3, 14.7, 24.4, 20.8, 12 (2×), 31.6, 10.6 (2×), 46.2, 22.4, 15.8, 17.4, 23.2, 10.3, 24.3, 23, 20.1, 10.5, 14.3, 20, 17.5, 14.9, 12.3, 14.8, 25.6, 20.6, 23.3, 27.1, 13.3, 14.1, 49.8, 18.7, 30.3, 15.5, 27.8% and active: 0.0673, 4.96, -31, -37.1, -38.5, -28.2, -4.63, -28.5, -10.4, -61.6, 5.13, -17.1, 8.05, 8, -0.253, -17.2, -15.1, -16.5, -17.4, -39.9, 2.71, -3.01, 3.32, 3.31, -6.36, -8.2, -29.6, 3.56, -17.5, -21.4, -5.79, -0.441, -21.5, 4.91, -33.3, -26.8, -31.6, 0.0724, -19.9, 0.201, -4.7, -6.69, 5.09, -0.396, -27.6, -16.2, 7.96, -30.3, -37.5, -22.9, 1.64, 2.06, -10.1, -22, -11.7, -24.1, -49.6, 8.52, -29.3, -46.5, -54.5, -16.8, -21.3, -18.9, 9.02, -25.9, -50.3, 0.251, -35.9, 1.48, -22.3, -40.9, -5.72, -7.45, -42.5, 8.43, -0.42%"
same,growth,[1]; runs of 1993,"active: -2.9, -21.3, -4.73, -9.25, 5.47, 3.26, 4.65, -56.4, 9.66, 4.49, -14.1, -4.51, -25.4, -31.8, -12.7, 5.12, -13.6, 9.12, -9.33, -8.43, -20.9% and inactive: 26.6, 28.3, 18.6, 36.4, 35.2, 50.8, 30.2, 18.1, 27.1, 30.4, 21.9, 22.7, 11.8, 14.6, 13.1, 21.8, 48.8, 21, 86.9, 28, 40.1, 53, 26.1, 17.7, 24.2, 25.9, 31.9, 44.5%"
same,growth,[1]; runs of 1994,"active: 4.4, -5.51, -31.2, -35.6, -25.3, -18.1, -42, -39.4, 0.242, -17.3, -48.5, -17.6, 3.38, -28.7% and inactive: 33.1, 11.1, 14.9, 11.8, 11.5, 28.3, 42.3, 14.3 (2×), 18.5, 14, 10.6, 13.5, 31.9, 26.1, 28.8, 23.2, 15, 19.1%"
same,growth,[1]; runs of 1995,"inactive: 37.2, 27.3, 10.7, 13.4, 25, 33.6, 83.7, 24.4, 24.7, 12.1, 18.4, 29.1, 31.8, 38.3, 15.4, 32.3, 25.7, 22.9, 20.8, 18.8, 13, 21.6% and active: -29.9, 3.54, -21.1, -13.5, 4.21, -15.2, -23.5, -41.2, -18.6, -14.1, -21.4, 5.86, -12.6, 4.94%"
same,growth,[1]; runs of 1996,"inactive: 37.8, 22.3, 30.3, 23.3 (2×), 33.4 (2×), 10.9, 24.7, 30, 11.1, 14.3, 11.3, 16.3, 31.1, 26.1, 23.6, 38, 13.5, 41.1, 23.7, 15.3, 35.6, 28.3, 21.1, 21.6, 35.2, 29.3, 22.8, 26.6, 18, 15.6, 17.5, 44.5, 42.5, 27.3, 14.8, 34% and active: 7.28, 1.78, 6.84, 2.27, -19.3, -15.6, 6.72, -13.6, 7.79, 2.58, 9.69, 0, 4.33, 0.891, 9.27, -8.87%"
same,growth,[1]; runs of 1997,"inactive: 27.7, 43.5, 14.1, 23.2 (2×), 35.1, 13.7, 19.9, 33.5, 23.5, 21.4, 26.5, 25.5, 42.9, 12.1, 30.9, 14.2, 23.1 (2×), 10.4, 20.3, 19.2, 31, 20.4, 24.7, 15.2, 15.7, 35.2, 30.3, 17.6% and active: -4.3, 5.58, 7.4, 3.54, 4.09, 9.4, 6.9, -8.73, -36.1, 4.62, -16.4%"
same,growth,[1]; runs of 1998,"inactive: 17.7, 25.7, 17.4, 23.6, 33.5, 34.8 (2×), 10.8, 43.5, 27.5, 19.5, 32.6, 18.7, 25.9, 23.5, 36.2, 25.8, 48, 30, 11.5% and active: 6.33, -26.6, -13.1, -17.7%"
same,growth,[1]; runs of 1999,"inactive: 36.2, 16.9, 26.8, 32.5% and active: 5.13, -11.2, 8.53, 1.79, -31.5, 0.837, -3.64, 5.72, 2.17, -57.6, 2.81%"
same,growth,[1]; runs of 2000,"active: 9.75, 1.65, 6.31, 0.756%"
same,growth,[2]; runs of 1991,"inactive: 95.1%, 21%, 14.6% and active: -28.7, -23.8, -23, -5.51, 4.28, -6.01, -61.9, -31.6, -52.8, 0.155, -9.52, -61.4, -31.8, -8.51, -6.94, -52.2, -53.3%"
same,growth,[2]; runs of 1992,"active: -52.3, -49.1, -9.52, -10.9, 0.935, -6.1, -33.2, -64.9, -6.3, -33.5, -45.1, -63.1 (2×), -14.2, -5.98, 8.06, -24.8, -32.9, 0.35, -17.1 (2×), -46.1, -60.9, 0.803, -44.6, -73.9, -11.7, -34.6, -60.4, -58.2, -53.1, -80.4, -64.4, -73.1, -55.7, -39.5, -18, -46.3, -41.4, -61.2, -100 (2×), -45, -71.9, -0.923, -64.5, -62.3, -40.9, -31.5, -31.8, -51, -45.9, -20.3, -61.7, -65.2, -60.1, -72, -77.6, -40.3, -30.4, -38, -53.2, -58.1 (2×), -10.2, -74.7, -37.5, -94.5, -98.3, -85.6, -84.7, -71.2, -48.9, -64.1, -49.7 (2×), -40.8, -36.3, -17, -30.1, -60.7, -61.1, -81.9, -89.4, -57.6, -21, -87.5, -32.8, -14.4, -68, -65.6, -37.2, -6.02, -27.3, -23.5, -12.1, -58.5, -76.4, -43.7, -56.5, -46.2, -59, 3.28, 1.54, -51.6, -15.9 (2×), -22.3, -23.1, -42.7, -53.4, 7.07, -11.1, 2.23% and inactive: 11.7%, 44.8%, 92.4%"
same,growth,[2]; runs of 1993,"active: -37.8, -63.9, -23.9, -4.96, -39.9, 7.59, 1.5, 1.77, 2.21, -42.7, -42.3, 4.19, -35.7, -6.46, 0.0288, -10.6, -4.44, -2.28, -12.5, -46.5, -33.3, -48.4, -9.76, -32.1, -50.4, 5.31, -33, -24.4, 0.767, -42.4, -22.9, -22, -19.3, -64.3, -26.6, -29.8, 0.891, -15.5, -63, -34.1, -13.7, -30.4, 3.45, -24.5, -6.3, -35.5% and inactive: 94.9%, 77%"
same,growth,[2]; runs of 1994,"active: 3.68, -34.5, -21.2, -17.1, -44.7, -31.1, -31.2, -51.4, -64.6, -18, 1.85, 2.17, -44.3, -12.2, 7.56, -66.4, -4.04, 0.472, -52.2, -28.3, -40.9, -43.2, -4.73, -29.3, -52.1, -19.2, 7.6, -47.3, -14.5, -10.5, -66.1, -55.1, -60.3% and inactive: 11%"
same,growth,[2]; runs of 1995,"active: -30.8, -81.4, -24.6, -19.4, -33.9, -76, 1.67, 2.24, -86.1, -10.1, 4.87, -65.8, -61.4, -5.21, -5.48, -77.9, -87.4, -12.7, -38.4, -65.3, -35.1, -21.4, -26.2, -26.7, -52.9, -26.9, -31.3, -17, -20.5, -6.16, -66.3, -51.2, -22.3, -43.8, -25.9, -60.1% and inactive: 12.6%"
